Data: the supplement of paper PMC11417369
This is one part of the list.

Test system: PF3D7_0420300 AP2 domain 1 (GST-tagged)
Experiment: gcPBM binding intensity (ln(normalized median fluorescence intensity)); higher = stronger DNA binding
In short: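 In this array assay, P. falciparum DNA-binding domains with a GST tag, expressed in E. coli, were applied for 1 h to primer-extended double-stranded 36-bp intergenic genomic probes and negative controls on an Agilent 4 × 180k array. Bound protein was visualised with Alexa488 anti-GST antibody at 488 nm. Binding intensity is the highest Masliner-normalised natural-log median intensity across replicate spots of either probe orientation.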

| Sequence | gcPBM binding intensity (ln) |
| --- | --- |
| TAAATATTATTTATATGTACTGATATATTAAATAAA [XGTACX_site3446] | 8.8 |
| AATTAATATTTAAATTGTACATGAACATTTTAATGT [XGTACX_site462] | 8.97 |
| GTCACAAAATAAATTAAACACACAACATCATATATG [CACACA_site8182] | 9.65 |
| AATATAAATTTATATTGTACATATTTTATTATATGT [XGTACX_site905] | 9.26 |
| GTGTATCAATATGTAGGTACGTAAATATAGATAATA [XGTACX_site5526] | 9.38 |
| TTAAATAAAATTTATTGTACATAAAATTAAATATAG [XGTACX_site3039] | 8.96 |
| CATAATTTACATAAAAGTACATATATATTAATGACG [XGTACX_site6247] | 9.27 |
| TTTATTCCCGCATATAGTACATATACCATTTAATGT [XGTACX_site7011] | 9.4 |
| GTAAAAAAAGAGCACACACACAAAAACACCCACAAA [CACACA_site1292] | 10 |
| AAACTTGTAAGAAACACACACACACGCATATAAATA [CACACA_site6518] | 10 |
| ATAAATAAAATATGCACACAAATATAGGAAACAACA [CACACA_site2561] | 9.93 |
| AATATTTAAGTACTGGTGCGTGTATATAATGATTAA [GTGCAC_site9633] | 9.34 |
| CATAAATACACTGTAGCGCACACGGCCAAAAAAAAA [CACACA_site8537] | 9.42 |
| ATATAATATGGTATTACACACTGTTATAAGTATGGC [CACACA_site2094] | 9.52 |
| AAAAGGGATAAATGTGCGCACATGTTATATATATAT [GTGCAC_site9534] | 9.49 |
| ACATATCTACACAGTGGTACTTCCATTAATATATAC [XGTACX_site3827] | 9.51 |
| ATTTATTCAAATGGTTGTACTACAAATAAACATTAT [XGTACX_site3378] | 9.2 |
| TCATAAATTAAACAAACACACACGTTCTTTTATTTA [CACACA_site713] | 9.52 |
| AACAATGTTGTACATACACACACACTAATAAAAAAT [CACACA_site8758] | 10 |
| AATACATACAGACACACACACACATATAAATAAATA [CACACA_site7642] | 10.2 |
| GCTCATTGAAGTTATACACACCAAATATGTAAATAT [CACACA_site7217] | 9.39 |
| AGAAGCATACATCAAGCACACACACCCACACCCACA [CACACA_site8014] | 9.99 |

| Sequence | gcPBM binding intensity (ln) |
| --- | --- |
| TCCTTTTCTTAATTTAAAAAATATAAAAAAAACGAA [CACACA_negctrl_site1821] | 8.75 |
| ACACGTTTATATAAAAAATTAAAATTTTTCTTATTT [CACACA_negctrl_site1523] | 9.17 |
| ATAACAAAATAAAACACACACACAAATGTACAGATA [CACACA_site5358] | 10.3 |
| ATTTTTGTGTTTACACGTACGTGTAAATTATTTTTC [XGTACX_site1869] | 9.46 |
| TATTCATGTTTAAAAAGTACATATTATGGTAACATT [XGTACX_site4533] | 9.12 |
| ACATATTAATTATTATGACATACATATCAGTTATTA [TGCATGCA_negctrl_site126] | 9.2 |
| TATATTATTTTATATTGTACATACCAAATATTATAT [XGTACX_site1693] | 9.24 |
| CATGTGATAATGATTAGTACATAAACAAAAATATAT [XGTACX_site5866] | 9.53 |
| AGAAAAATAAACAAATGTACAAATTATTACTATATA [XGTACX_site1087] | 9.44 |
| TATAATATTAATGACTGTACTCATACGTATATTTAT [XGTACX_site5493] | 9.37 |
| AATTTTGTTTAGCACACACACATACATACATACATA [CACACA_site5707] | 10.1 |
| TTTAATTTATATTTTGTGCACATCTTATTATATATA [GTGCAC_site9630] | 9.41 |
| CCCATTTTGACAAAAAGTACAAGTTCAGGTTTTATA [XGTACX_site1532] | 9.22 |
| TTTCTCTTCTAAACATGTACAAAAATACATACATAT [XGTACX_site1365] | 9.14 |
| AAAAATTAAAATATTATAGTTGAAACTTTTATAAAT [TGCATGCA_negctrl_site454] | 8.81 |
| TATATTTATTCCTGTTGTACTTTATATTATTTTTTT [XGTACX_site1415] | 9.79 |
| ATATATATATATATATGTACATACATACATAGAACT [XGTACX_site2214] | 9.51 |
| TCCCATTTATTATGGTGTACAATTAATTAAACATAA [XGTACX_site750] | 8.88 |
| TTATATAAACACCAACGTACGTTCATTTAACATAAC [XGTACX_site5250] | 9.33 |
| TATATATATATATATTGTACATATGTGGTATAAATG [XGTACX_site6108] | 9.43 |
| GCATATCTATTTTCACGTACACAAACATGTATATAT [XGTACX_site3722] | 9.48 |
| ATATTACATATGTGCTGTACGCAATATATTATATCT [XGTACX_site1520] | 9.42 |

| Sequence | gcPBM binding intensity (ln) |
| --- | --- |
| AAGAACTTTAATAAGTGTACATTTATTGGAAACATG [XGTACX_site2995] | 9.19 |
| TAAAATATAGAAAATTTTATTAAATATAAAAAAATA [CACACA_negctrl_site1441] | 8.88 |
| AAAAATATATATTCAGTGCATATAACAAAAATTATA [GTGCAC_site9794] | 9.28 |
| ATTAAATAAAAAAACACACACATATATACATATATA [CACACA_site3445] | 9.89 |
| CATAATAATAGAAACACACACACATAGACATATATA [CACACA_site1308] | 10.2 |
| CATATATAACCTATAGCACACATATATAATATATAT [CACACA_site8544] | 9.58 |
| TTTTTCATATGACACACACACAAAAATAATGTGGAA [CACACA_site7692] | 9.76 |
| AAATGAACACGAAAGGAAAAAAAAATATATATATAT [CACACA_negctrl_site267] | 9.41 |
| TCATTTTATTATTCTACACACTTATCTATAATTATA [CACACA_site34] | 9.68 |
| ATAATTACATAGATTGGTACACATTTTTGATTGTAT [XGTACX_site3802] | 9.46 |
| TTAAAAATGTGTGTGCGTACATAATATTTCGAAAAA [XGTACX_site8197] | 9.61 |
| GTACAAATGATTAATCCTTTACTTATATATATATAT [XGTACX_negctrl_site138] | 9.46 |
| CATTTTTTTTTATAAATACACACGTACGGGTGCATA [CACACA_site1569] | 9.13 |
| GAACATTTACGCCCCACACACCTACCAACAAAAAAA [CACACA_site7746] | 9.53 |
| TTCTTAAAAAAAAATAAAATAAAAAAAAAAATAAAA [CACACA_negctrl_site99] | 9.09 |
| TTCTGGCAAAATAACACACACATATATTTTATATAC [CACACA_site3242] | 10.1 |
| CAAAAACATACCTACACACACAATATGTATTTATAA [CACACA_site5862] | 9.9 |
| AAATGAATATTCATAGTGCAATATATAAATGAAAAT | 9.46 |
| TTTAATTATTAGTGTGCACACAACTATGAGTTTTTA [CACACA_site8997] | 9.47 |
| AATTACATTCAATTCTGTACTAATAGTAATTCAAAA [XGTACX_site7419] | 9 |
| TATAAAAAATTCTTCCTTATTTTATGATATATATAT [TGCATGCA_negctrl_site57] | 9.06 |
| ATTTGCAGTATTTCGGAACACACAAACATAAATATG [CACACA_site8726] | 9.34 |

| Sequence | gcPBM binding intensity (ln) |
| --- | --- |
| TATTCCTATAAAAAAACACACACATATAAATATATA [CACACA_site8727] | 9.74 |
| AAATATATTTCACGCACACACACCCCAAATAAATTT [CACACA_site3820] | 9.92 |
| ATATTTCAAAATGAAAGTACATATAAAAATTATACA [XGTACX_site3787] | 9.13 |
| AAGTATTTTTTTACATGTACATATATATATATATAT [XGTACX_site5065] | 9.36 |
| AAATAGATAAGTAGGACACACATATATATATATTAA [CACACA_site1862] | 9.59 |
| TTTTTTTTTTTTTTCTGTACAAATTAAATCTACATA [XGTACX_site8285] | 8.93 |
| GACATAAAATTCAAAGTGCATAAATAAAATAAACCC | 9.49 |
| TATTTTAATGAATTCACACATATAATTTATTTTATA [CACACA_site4538] | 9.03 |
| ATATTTAAAAAATGATGTACAAAAATGTAGTCACAC [XGTACX_site6208] | 9.24 |
| GAAATTAAATGACATACACACTATATTATAGATTTT [CACACA_site7468] | 9.47 |
| ATATAAAACTAATTTCTTTTTCTCCTTTTATTTTGT [CACACA_negctrl_site1251] | 9.23 |
| ATAGTATCTGGTAGCTGTACGAGTCGTAGAGTGTAA [XGTACX_site4936] | 9.3 |
| ATATATATATATAAATGTACAGATATATTTTTTATT [XGTACX_site5445] | 9.16 |
| TTTAATTTGATAGACACATGCACACGTGCAATACTT [TGCATGCA_site777] | 9.15 |
| TACTAAAAAATATAAACACACATATATTTTACATAT [CACACA_site2042] | 9.55 |
| AATATATATTAATAAAGTACAGGAAATATTTTTACC [XGTACX_site7052] | 9.51 |
| AAAATACATAGACACACACACACACGGATATAAATA [CACACA_site7643] | 10.2 |
| TTTGTAAGAAATAAATGTACAAAAATTAATTTTTAT [XGTACX_site8983] | 9 |
| TATGTATATTTTAATTGTACGTGTATGGTTGTAAAT [XGTACX_site8738] | 9.33 |
| CACTAATAGTGGATTACACACATATATCTGTATTTA [CACACA_site5403] | 9.42 |
| TGATTAATAATTTTCTTCATACATTAAACATCTTTT [TGCATGCA_negctrl_site342] | 9.02 |
| TTTTTTTTTTCATTAACACACATAAATATATATATA [CACACA_site5759] | 9.32 |
